Drawing on a collection of fitness landscapes (doi:10.1126/science.1257360), this text covers enrichment ratio for 195 variants.

The list shows a part of the results.

First the molecules themselves.
B1: PhoQ; a variant is named by its letters at X, in order, P23837 (parent)
chain: MKKLLRLFFPLSLRVRFLLATAAVVLVLSLAYGMVALIGYSVSFDKTTFRLLRGESNLFYTLAKWENNKLHVELPENIDKQSPTMTLIYDENGQLLWAQRDVPWLMKMIQPDWLKSNGFHEIEADVNDTSLLLSGDHSIQQQLQEVREDDDDAEMTHSVAVNVYPATSRMPKLTIVVVDTIPVELKSSYMVWSWFIYVLSANLLLVIPLLWVAAWWSLRPIEALAKEVRELEEHNRELLNPATTRELTSLVRNLNRLLKSERERYDKYRTTLTDLTHSLKTPLXXLQXXLRSLRSEKMSVSDAEPVMLEQISRISQQIGYYLHRASMRGGTLLSRELHPVAPLLDNLTSALNKVYQRKGVNISLDISPEISFVGEQNDFVEVMGNVLDNACKYCLEFVEISARQTDEHLYIVVEDDGPGIPLSKREVIFDRGQRVDTLRPGQGVGLAVAREITEQYEGKIVAGESMLGGARMEVIFGRQHSAPKDE

Variants of B1 are the subject of the experiment. The experiment can be described thus: enrichment ratio after two sorts for PhoP signalling (ratio (wild type AVST 3.29)); higher = more functional. As to conditions: with PhoP (E. coli).
On to TLVH, for which the enrichment ratio is not above 0.25.
For CMHL the value was 9.84; for AWWF, not above 0.25.
For KITH the value was 3.09.
QLYA: the enrichment ratio is not above 0.25.
The value for MGVS was not above 0.25; that for SENG was 1.31; that for YDSK was not above 0.25.
For DYWF the value was not above 0.25; for VGFL, 0.317.
For FTYD the value was not above 0.25; for RNIA, not above 0.25.
PQMD: the enrichment ratio is not above 0.25.
The value for REFC was not above 0.25; that for ALFS was not above 0.25; that for TLVF was not above 0.25.
For AQYY the value was not above 0.25.
WQVG: the enrichment ratio is not above 0.25.
For MCRK the value was not above 0.25; for PQLI, not above 0.25.
For PGNY the value was not above 0.25; for DRCD, not above 0.25.
The value for IIFA was not above 0.25; that for DWPQ was not above 0.25; that for AGVS was 1.15.
Take LIPL: the enrichment ratio was not above 0.25.
For VFIP the value was not above 0.25.
Consider LEVK, for which the enrichment ratio is not above 0.25.
As to GSLG, the enrichment ratio is 6.29.
Regarding YQQL, the enrichment ratio was not above 0.25.
The value for KNAD was not above 0.25.
The value for KSMY was not above 0.25; that for GLNM was not above 0.25; that for VWNS was not above 0.25.
For MPCA the value was not above 0.25; for GPLT, not above 0.25; for AGQA, not above 0.25.
On to PDNW, for which the enrichment ratio is not above 0.25.
As to YETA, the enrichment ratio was not above 0.25.
The value for WPIA was not above 0.25; that for QHPT was not above 0.25; that for HTMN was not above 0.25.
For LDML the value was not above 0.25; for LKQA, not above 0.25.
For PGVH the value was not above 0.25; for NPVV, not above 0.25.
As to HPPP, the enrichment ratio was not above 0.25.
For IRFY the value was not above 0.25.
Take EFQD: the enrichment ratio is not above 0.25.
The value for LAIA was not above 0.25; that for NYDV was not above 0.25; that for HDST was not above 0.25.
For TWRT the value was not above 0.25; for RMGK, not above 0.25; for CCLF, not above 0.25.
The value for DYCY was not above 0.25; that for HQQK was not above 0.25; that for HGFQ was not above 0.25.
Take SYEW: the enrichment ratio was not above 0.25.
As to KAKD, the enrichment ratio was not above 0.25.
The value for PFEQ was not above 0.25; that for IHMG was not above 0.25.
Consider SFRI, for which the enrichment ratio was not above 0.25.
The value for SNSE was 16.4; that for WLKR was not above 0.25; that for VNQH was not above 0.25.
The value for KLWI was not above 0.25; that for YQKD was not above 0.25.
For TADK the value was not above 0.25; for DICT, not above 0.25; for VVRY, not above 0.25.
Consider MPRM, for which the enrichment ratio was not above 0.25.
For MFKG the value was not above 0.25.
For VVFW the value was not above 0.25; for AVGL, 3.84.
For TYRH the value was not above 0.25.
Regarding KEKV, the enrichment ratio was not above 0.25.
For QHMH the value was not above 0.25; for SEHN, not above 0.25; for RVLM, not above 0.25.
For FNQM, the enrichment ratio was not above 0.25.
As for LQDK, the enrichment ratio was not above 0.25.
The value for QCHW was not above 0.25; that for KGMT was not above 0.25; that for AFFS was not above 0.25.
For YYCD the value was not above 0.25; for WPLV, not above 0.25; for TWSY, not above 0.25.
Regarding DKHG, the enrichment ratio was not above 0.25.
For KDSY the value was not above 0.25; for EFHC, not above 0.25; for HRAY, not above 0.25.
The value for KPIV was not above 0.25.
For VCTK the value was not above 0.25.
With VMAC, the enrichment ratio is not above 0.25.
For RFQW the value was not above 0.25.
In the case of SEKN, the enrichment ratio is not above 0.25.
For ELWY the value was not above 0.25; for TLPP, not above 0.25; for DVRP, not above 0.25.
The value for NHKD was not above 0.25.
Turning to TFHH, the enrichment ratio is not above 0.25.
For the variant HSDK, the enrichment ratio is not above 0.25.
The value for NESL was not above 0.25; that for GSLF was 11.4; that for YHDC was not above 0.25.
For EYWV the value was not above 0.25; for YSYI, not above 0.25; for AQML, 24.2.
The value for NWVW was not above 0.25; that for DSHA was not above 0.25; that for KDIG was not above 0.25.
With QVKP, the enrichment ratio is not above 0.25.
Turning to SMGF, the enrichment ratio turned out to be 10.1.
For IVFQ the value was not above 0.25.
The value for MREA was not above 0.25; that for SGYN was not above 0.25.
In the case of QISE, the enrichment ratio is not above 0.25.
As for NSIE, the enrichment ratio is not above 0.25.
Consider KQIH, for which the enrichment ratio was not above 0.25.
For EPCI the value was not above 0.25.
YHCW: the enrichment ratio is not above 0.25.
The value for MSWG was 5.88; that for EYCY was not above 0.25.
Turning to MDMF, the enrichment ratio was not above 0.25.
For IPKM the value was not above 0.25.
For TQPM the value was not above 0.25.
The value for DCPC was not above 0.25; that for MWST was not above 0.25; that for VSYS was not above 0.25.
Consider RHVE, for which the enrichment ratio is not above 0.25.
For YRCC the value was not above 0.25; for GCKS, not above 0.25; for QNDV, not above 0.25.
The value for FWVS was not above 0.25.
The value for TGCH was 10.6; that for DNCW was not above 0.25.
Turning to DNEA, the enrichment ratio was not above 0.25.
For YRGQ the value was not above 0.25.
For RRIE the value was not above 0.25; for PKTA, not above 0.25.
For ELNR the value was not above 0.25; for FSFF, not above 0.25.
For the variant IQAR, the enrichment ratio was not above 0.25.
The value for HRHC was not above 0.25.
Regarding TDCK, the enrichment ratio is not above 0.25.
The value for MTFV was not above 0.25; that for YFCG was not above 0.25.
For QCQF, the enrichment ratio is not above 0.25.
For NIQF the value was not above 0.25; for LWQW, not above 0.25.
The value for RCKV was not above 0.25; that for LTSF was not above 0.25; that for RPSR was 0.252.
For IGWE the value was not above 0.25; for NLNM, not above 0.25.
As to NEYI, the enrichment ratio was not above 0.25.
For YDHS the value was 0.674; for INAL, not above 0.25; for ITTT, not above 0.25.
The value for HIPE was not above 0.25.
The value for DFLM was not above 0.25.
As for YQFD, the enrichment ratio was not above 0.25.
The value for KYYW was not above 0.25.
For SRSK the value was not above 0.25.
The value for WNPN was not above 0.25; that for HGVR was not above 0.25; that for LPDK was not above 0.25.
For the variant FGIT, the enrichment ratio is not above 0.25.
For FLHT the value was not above 0.25; for EVKG, not above 0.25.
As for DSVG, the enrichment ratio was not above 0.25.
The value for LWTI was not above 0.25.
The value for TLGI was 4.86.
For LKCW the value was not above 0.25; for TRFS, not above 0.25; for DAKL, not above 0.25.
Regarding FQVK, the enrichment ratio is not above 0.25.
Take SPKQ: the enrichment ratio is not above 0.25.
As for LSWE, the enrichment ratio is not above 0.25.
For WLLN the value was not above 0.25.
For FPKV the value was not above 0.25; for ICVS, not above 0.25.
For WERS the value was not above 0.25; for YHLM, 0.877.
Consider QKTA, for which the enrichment ratio was not above 0.25.
The value for AHFN was not above 0.25.
In the case of RNMR, the enrichment ratio is not above 0.25.
For VWQR the value was not above 0.25.
For the variant SDEQ, the enrichment ratio is not above 0.25.
For GEDT the value was not above 0.25; for QIGY, not above 0.25.
For the variant EMKL, the enrichment ratio is not above 0.25.
For the variant GDFV, the enrichment ratio is not above 0.25.
For GHGH the value was not above 0.25.
